Experimental data reported in PubChem BioAssay AID588342 (National Center for Advancing Translational Sciences (NCATS), 2011).
Values joined by “and” are separate entries in the source; they are usually repeats but may differ in a detail not shown here. Equal values may be shown once. Hit rate of the full screen: of about 360,000 compounds, about 25,000 (6.9%) were called active. Inconclusive means that the source gave no clear call. Such entries were picked first, then a sample of the others. Calls come from the whole dose curve; as a rule, active = well fitted inhibition curve with a large enough effect; inconclusive = small, poorly fitted or top-dose-only effect; inactive = flat fitted curve, though single readings scatter. A potency beside an inconclusive call is a rough fit, not a confirmed value.
Note: nearly all actives have a fitted effect of over 55% in size.
Potency is the fitted concentration of half-maximal effect; tags give direction and shape of the fitted curve.
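Throughout, for activity change, negative = inhibition: plate controls were vehicle for no effect and reference inhibitor for full effect.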

Each compound was assayed against Luciferin 4-monooxygenase (Photinus pyralis) (UniProt P08659) (assay: qHTS profiling assay for firefly luciferase inhibitor/activator using purifed enzyme and Km concentrations of substrates (counterscreen for miR-21 project)). Conditions: purified FLuc, luminescence inhibition; series mostly up to 57.5 µM; activity change, negative = inhibition: at the top concentration.
Sequence of UniProt P08659 (P08659 whole entry, looked up): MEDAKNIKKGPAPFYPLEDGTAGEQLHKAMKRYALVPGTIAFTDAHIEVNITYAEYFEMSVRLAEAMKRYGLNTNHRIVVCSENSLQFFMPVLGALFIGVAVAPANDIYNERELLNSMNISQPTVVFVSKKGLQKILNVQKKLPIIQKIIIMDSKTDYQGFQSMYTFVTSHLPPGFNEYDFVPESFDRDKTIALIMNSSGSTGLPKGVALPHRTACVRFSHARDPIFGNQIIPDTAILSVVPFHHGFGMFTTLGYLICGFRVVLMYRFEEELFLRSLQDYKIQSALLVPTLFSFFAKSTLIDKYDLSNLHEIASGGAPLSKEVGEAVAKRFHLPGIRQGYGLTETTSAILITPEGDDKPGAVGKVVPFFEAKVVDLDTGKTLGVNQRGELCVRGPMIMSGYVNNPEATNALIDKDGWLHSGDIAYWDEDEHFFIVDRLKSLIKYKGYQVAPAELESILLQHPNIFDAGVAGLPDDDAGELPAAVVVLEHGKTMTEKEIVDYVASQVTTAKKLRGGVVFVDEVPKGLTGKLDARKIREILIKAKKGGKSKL
Method in brief: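 Biochemical qHTS of compounds, final roughly 60 µM downward over six points, against 10 nM purified firefly luciferase using Km concentrations of substrates (10 uM D-luciferin, 10 uM ATP) in Tris acetate pH 7.5 buffer; luminescence output.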
With `O=C(Nc1ncc(Cc2cccc(Cl)c2)s1)c1cccs1` the Potency was active: 15.1 µM.
With `Clc1ccc(-c2nnc3c4ccccc4nc(N4CCOCC4)n23)cc1Cl` the Potency was inconclusive: 33.8 µM [inhibitor, partial curve, poor fit].
With `COc1cc(C(=O)Oc2cccc(/C=N/NC(=O)c3cccnc3)c2)cc(OC)c1OC` the Potency was inconclusive: 30.1 µM [inhibitor, partial curve, poor fit].
For `O=C(NCCOCCOCCNC(=O)c1cccnc1)c1cccnc1`, the Potency was inconclusive: 26.9 µM [inhibitor, partial curve, poor fit].
With `N/C(=N\OC(=O)c1cccc2ccccc12)c1cccnc1` the Potency was active: 12 µM.
For `COCC(C)n1c(C)cc(C(=O)Cn2nc(C(=O)O)c3ccccc3c2=O)c1C` (stereo not given), the Potency was active: 7.57 µM.
With `CCOC(=O)c1ccc(NC(=O)CC2C(=O)N(c3cccc(OC)c3)C(=O)N2Cc2cccnc2)cc1` (stereo not given) the “activity change, negative = inhibition” value was inactive: -17.3%.
`CC1CCN(c2nc(-c3cccnc3)nc3scc(-c4ccccc4)c23)CC1` was tested, and the “activity change, negative = inhibition” value was inactive: -1.2%.
`CC1=C(C(=O)Nc2ccccn2)C(c2ccc(Br)cc2)NC(=S)N1` (stereo not given) was tested, and the Potency was inconclusive: 21.3 µM [inhibitor, single point].
For `COc1ccc(C(=O)Nc2nnc(SCc3cc(=O)c4cccc(F)c4[nH]3)s2)cc1`, the Potency was active: 21.3 µM.
`Cc1nc([N+](=O)[O-])cn1-c1nc2ccccn2c1[N+](=O)[O-]` was tested, and the “activity change, negative = inhibition” value was inactive: -0.439%.
In the case of `COc1ccc2c(C)c(CCC(=O)NCCc3ccc(OC)c(OC)c3)c(=O)oc2c1`, the “activity change, negative = inhibition” value is reported as inactive: 4.63%.
For `Cc1ccc(-c2nnc(SCC(=O)Nc3ccccc3N3CCOCC3)o2)cc1`, the Potency was inconclusive: 37.9 µM [inhibitor, single point].
For `Cc1cc(C)nc(N/N=C/c2ccccc2OCc2ccc(Cl)cc2)n1`, the Potency was inconclusive: 8.49 µM [inhibitor, partial curve, poor fit].
With `CCS(=O)(=O)N1CC(=O)N(c2ccc(Cl)cc2C)C(C)(C(=O)NC2CCCCC2)C1` (stereo not given) the “activity change, negative = inhibition” value was inactive: -0.423%.
For `CCOc1ccc(N(CC(=O)NCc2ccccc2)S(C)(=O)=O)cc1`, the Potency was inconclusive: 26.9 µM [inhibitor, partial curve, poor fit].
With `COc1ccc(C(=O)Nc2ccccc2C(=O)Nc2ccccn2)cc1` the Potency was active: 6.01 µM.
`Cc1cc(=O)n(CC(=O)N2CCCc3ccccc32)c2c1c(C)nn2-c1cccc(F)c1` was tested, and the “activity change, negative = inhibition” value was inactive: -1.09%.
With `O=C(CS(=O)(=O)c1ccccc1)Nc1nc2ccccc2s1` the Potency was inconclusive: 26.9 µM [inhibitor, single point].
For `CCc1cccc2c(C(=O)COC(=O)c3ccc([N+](=O)[O-])s3)c[nH]c12`, the Potency was inconclusive: 21.3 µM [inhibitor, partial curve, poor fit].
In the case of `Cc1ccc(C)c2nc3sc(C(=O)N4CCOCC4)c(N)c3cc12`, the Potency is reported as inconclusive: 23.9 µM [inhibitor, single point].
With `CCCOc1ccc(NC(=O)C2OC3OC(C)(C)OC3C3OC(C)(C)OC23)cc1` (stereo not given) the “activity change, negative = inhibition” value was inactive: 7.57%.
`O=C(O)CSc1nnc(-c2ccc3c(c2)OCO3)n1-c1ccccc1` was tested, and the Potency was inconclusive: 37.9 µM [inhibitor, partial curve, poor fit].
With `Cc1cc(NS(=O)(=O)c2ccc(NC(=O)/C=C/c3ccc(C)o3)cc2)nc(C)n1` the Potency was inconclusive: 23.9 µM [inhibitor, partial curve].
In the case of `O=C(CSc1nc(-c2ccccc2)nc2ccc(F)cc12)Nc1ccc(C(=O)O)cc1`, the Potency is reported as inconclusive: 37.9 µM [inhibitor, single point].
In the case of `COc1ccccc1N/C(=N/S(=O)(=O)c1ccc(C)cc1)c1ccc(Cl)cc1`, the “activity change, negative = inhibition” value is reported as inactive: -1.6%.
`Cc1c(CNC2CCC(C)CC2)c(C(=O)O)c(C)n1Cc1ccc(Cl)cc1` (stereo not given) was tested, and the “activity change, negative = inhibition” value was inactive: -1.95%.
With `CCn1c(CNC(=O)c2ccco2)nnc1SCC(=O)Nc1cccc(F)c1` the “activity change, negative = inhibition” value was inactive: 4.49%.
In the case of `O=C1CCCCN1CCc1c[nH]c2ccccc12`, the Potency is reported as inconclusive: 16.9 µM [inhibitor, partial curve].
In the case of `O=C(c1ccc(Br)cc1)c1cc2ccc(O)cc2oc1=O`, the Potency is reported as inconclusive: 26.9 µM [inhibitor, single point].
`CCOC(=O)C(CC)Sc1ncnc2c1c(-c1ccccc1)cn2-c1ccc(OC)cc1` (stereo not given) was tested, and the “activity change, negative = inhibition” value was inactive: -0.0024%.
For `COC12NC(=O)N(C)C1(OC)C(=O)N(C)C(=O)N2C` (stereo not given), the “activity change, negative = inhibition” value was inactive: -0.985%.
For `Nc1nonc1-n1nnc(C(=O)N/N=C/c2c[nH]c3ccccc23)c1-c1ccccc1`, the “activity change, negative = inhibition” value was inactive: -1.39%.
In the case of `COc1cccc(N2C(=O)C(CC(=O)Nc3ccccc3)N(CCc3sccc3C)C2=O)c1` (stereo not given), the “activity change, negative = inhibition” value is reported as inactive: -1.54%.
With `CC1CCCN(S(=O)(=O)c2cnc[nH]2)C1` (stereo not given) the “activity change, negative = inhibition” value was inactive: 0.139%.
In the case of `COc1ccc(CCNC(=O)c2ccccc2NC(=O)C2=C(C)OCCS2)c(OC)c1`, the Potency is reported as inconclusive: 23.9 µM [inhibitor, partial curve, poor fit].
In the case of `CC(C)CCNC(=O)CC1C(=O)N(Cc2ccccc2)C(C)c2nc3ccccc3n21` (stereo not given), the “activity change, negative = inhibition” value is reported as inactive: 6.94%.
`NC(=O)c1cc2ccccc2oc1=NCc1ccccc1` was tested, and the Potency was inconclusive: 37.9 µM [inhibitor, single point].
`CCCNC(=O)c1noc2c1CCc1ccccc1-2` was tested, and the Potency was active: 19 µM.
`CCOC(=O)Cc1cnc(NC(=O)CSc2nc(C)c(CC)c(=O)[nH]2)s1` was tested, and the Potency was inconclusive: 10.7 µM [inhibitor, partial curve].
With `COc1ccc2cc(C(=O)N3CCC(Cc4ccccc4)CC3)[nH]c2c1` the Potency was inconclusive: 13.5 µM [inhibitor, partial curve].
With `CC(C)OCCCNC(=O)c1cc(-c2cccnc2)nc2ccccc12` the “activity change, negative = inhibition” value was inactive: -0.469%.
`Nc1nnc(CC(=O)N/N=C/c2ccc(-c3cccc(C(=O)O)c3)o2)s1` was tested, and the Potency was inconclusive: 23.9 µM [inhibitor, partial curve, poor fit].
For `Cc1cccc(NC(=O)C2CCCN(S(=O)(=O)c3ccc4c(c3)oc(=O)n4C)C2)c1C` (stereo not given), the “activity change, negative = inhibition” value was inactive: 1.03%.
In the case of `COc1ccc(NC(=O)CN2C(=O)NC(C)(c3ccccc3)C2=O)cc1Cl` (stereo not given), the Potency is reported as active: 21.3 µM.
With `COc1cccc(/C=N/Nc2snc(SC)c2C#N)c1` the Potency was active: 4.78 µM.
With `Cc1onc(-c2ccccc2)c1C(=O)Nc1ncc([N+](=O)[O-])s1` the “activity change, negative = inhibition” value was inactive: -20%.
In the case of `CN(CC(=O)N(C)CC(=O)Nc1c(Cl)cccc1Cl)Cc1ccc(Br)s1`, the “activity change, negative = inhibition” value is reported as inactive: 2.18%.
For `Cc1cccc(NC(=O)c2ccco2)c1C`, the “activity change, negative = inhibition” value was inactive: 0.28%.
In the case of `O=C(NC1CCSc2ccccc21)c1cccc([N+](=O)[O-])c1` (stereo not given), the Potency is reported as inconclusive: 26.9 µM [inhibitor, partial curve, poor fit].
With `COc1ccc(OCCCC(=O)Nc2cccc(S(=O)(=O)N3CCCCCC3)c2)cc1` the “activity change, negative = inhibition” value was inactive: -12.1%.
For `C/C(=N\NC(=O)c1c(Br)c(C)nn1C)c1cccc(NC(=O)c2ccccc2C)c1`, the Potency was active: 12 µM.
In the case of `C=CCNC(=O)c1onc(CSc2ccc(F)cc2)c1C(=O)NCC=C`, the “activity change, negative = inhibition” value is reported as inactive: 3.4%.
In the case of `C/C(=N/NC(=O)c1ccc(Br)s1)c1ccncc1`, the Potency is reported as inconclusive: 21.3 µM [inhibitor, partial curve, poor fit].
With `CC1(C)Cc2c(sc3c2c(=O)n(Cc2ccccc2)c2nncn32)CO1` the “activity change, negative = inhibition” value was inactive: 0.93%.
In the case of `Cc1[nH]c2ccccc2c1/C=N/NC(=O)CNC(=O)c1ccc2c(c1)OCCO2`, the Potency is reported as inconclusive: 21.3 µM [inhibitor, single point].
For `CC(C)CC(NC(N)=O)C(=O)OCC(=O)Nc1ccc(SC(F)F)cc1` (stereo not given), the Potency was inconclusive: 30.1 µM [inhibitor, partial curve, poor fit].
With `CC(=O)Oc1c(Cl)c(N2CCOCC2)c(OC(C)=O)c2ccccc12` the “activity change, negative = inhibition” value was inactive: -0.856%.
In the case of `C=CCOc1ccc(/C=C/C(=O)OCC(=O)NCc2cccs2)cc1`, the Potency is reported as inconclusive: 16.9 µM [inhibitor, partial curve].
For `CCc1ccc(OCCNC(=O)c2cccs2)cc1`, the Potency was inconclusive: 21.3 µM [inhibitor, single point].
In the case of `COc1cccc(-c2ccnc3c(-c4ccccc4)c(C)nn23)c1`, the Potency is reported as active: 10.7 µM.
With `Cn1ccnc1SCC(=O)Nc1ccc2ccccc2c1` the Potency was active: 5.36 µM.
`CN(C)C1=NCCN1CCCCc1ccccc1` was tested, and the “activity change, negative = inhibition” value was inactive: -0.379%.
`Cc1cc(OCCN2CCOCC2)ccc1Cl` was tested, and the Potency was inconclusive: 21.3 µM [inhibitor, partial curve, poor fit].
With `Cc1ccc(CN2C(=O)CCC2C(=O)NCCN(CC(C)C)CC(C)C)cc1` (stereo not given) the Potency was inconclusive: 26.9 µM [inhibitor, single point].
`Cc1cccc(N2CCN(C(=O)COCc3cc(-c4ccc5c(c4)OCO5)on3)CC2)c1C` was tested, and the Potency was inconclusive: 10.7 µM [inhibitor, partial curve, poor fit] and inconclusive: 37.9 µM [inhibitor, partial curve, poor fit].
`CCC(C)n1c(-c2ccco2)nc2nc3ccccc3nc21` (stereo not given) was tested, and the Potency was inconclusive: 21.3 µM [inhibitor, single point].
In the case of `COc1ccc(-c2[nH]ncc2/C=N/NC(=O)c2ccc(Br)cc2)c(OC)c1`, the Potency is reported as inconclusive: 37.9 µM [inhibitor, single point].
In the case of `COC(=O)N(C)c1nc2ccccc2s1`, the Potency is reported as active: 23.9 µM.
`Cc1ccc(-c2nc(C#N)c(NCc3cccc4c3OCO4)o2)cc1` was tested, and the Potency was inconclusive: 23.9 µM [inhibitor, single point].
With `O=[N+]([O-])c1cccc(/C=N\N2CCN(Cc3ccccc3Cl)CC2)c1` the Potency was inconclusive: 37.9 µM [inhibitor, partial curve, poor fit].
In the case of `O=C(Nc1ccc(Cl)c(Cl)c1)N1CC=C(c2ccccc2)CC1`, the Potency is reported as inconclusive: 21.3 µM [inhibitor, partial curve].
In the case of `CCN(CC)c1ccc(NC(=O)c2ccccc2F)cc1`, the Potency is reported as active: 6.01 µM.
`Cc1cc(=O)cc(C)n1-c1ccc(Cl)cc1` was tested, and the “activity change, negative = inhibition” value was inactive: -0.751%.
`O=C(Nc1ccc(Cl)c([N+](=O)[O-])c1)c1ccc(NCCCN2CCOCC2)c([N+](=O)[O-])c1` was tested, and the “activity change, negative = inhibition” value was inactive: 3.04%.
